Source: PubChem BioAssay AID485294 (National Center for Advancing Translational Sciences (NCATS), 2010)
Screen size: about 370,000 compounds; about 150 (0.041%) were called active. Inconclusive means that the source gave no clear call. Such entries were picked first, then a sample of the others. The call rests on the fitted dose curve; in most records, active means well fitted inhibition curve with a large enough effect; inconclusive means small, poorly fitted or top-dose-only effect; inactive means flat fitted curve, though single readings scatter. No potency is given beside an inconclusive call; the fits are too rough. Square brackets hold non-standard residues; d marks the D form. Peptide text beside a SMILES is read from it. * marks the point of attachment. ξ: configuration not given here. Boc = CC(C)(C)OC(=O)*; ξP = O=C(O)C1CCCN1
Further: nearly all actives have a fitted effect of over 25% in size.
Potency means the concentration at half of the fitted maximal effect; tags describe the fitted curve by direction and shape.

Each compound was assayed against Beta-lactamase (Escherichia coli (strain K12)) (UniProt P00811) (assay: qHTS Inhibitors of AmpC Beta-Lactamase (assay with detergent)). Details: AmpC hydrolysis of nitrocefin, absorbance 480 nm, 0.01% Triton; series mostly up to 114 µM.
UniProt P00811, sequence (P00811 whole entry, looked up): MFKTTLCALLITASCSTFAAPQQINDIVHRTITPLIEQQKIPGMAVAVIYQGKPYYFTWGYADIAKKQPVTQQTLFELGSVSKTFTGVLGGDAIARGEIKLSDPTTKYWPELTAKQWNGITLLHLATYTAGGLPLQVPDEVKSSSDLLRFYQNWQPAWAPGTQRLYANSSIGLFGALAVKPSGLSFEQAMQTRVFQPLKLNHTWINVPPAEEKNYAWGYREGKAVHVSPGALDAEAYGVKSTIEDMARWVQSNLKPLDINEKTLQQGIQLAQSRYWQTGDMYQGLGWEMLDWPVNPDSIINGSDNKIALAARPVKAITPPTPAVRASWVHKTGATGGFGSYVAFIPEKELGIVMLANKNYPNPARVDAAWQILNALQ
Procedure, shortened: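 20 mM phosphate pH 7.0 + 0.01% (detergent screen) or 0.0001% Triton X-100; 5.3 nM AmpC reagent; cpd preinc 15 min RT; nitrocefin (800 uM stock) to start; A480 q20 s × 4 min; Activity was normalised to no-enzyme and no-compound control wells.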
For `COC(=O)c1c(-c2cccnc2)csc1NC(=O)c1ccc2c(c1)OCO2`, the Potency was inconclusive [inhibitor, full curve].
In the case of `CCOC(=O)C1(Cc2ccccc2Cl)CCN(C(=O)c2cnccn2)CC1`, the Potency is reported as “inactive”.
For `COc1ccc(-c2csc(NC3=NCCCCC3)n2)cc1`, the Potency was “inactive”.
With `COc1cc(NC(=O)N[C@@H](Cc2ccccc2)C(=O)O)cc(OC)c1` the Potency was inconclusive [inhibitor, single point].
For `O=C1CCCC2=C1C(c1ccc(O)c(Br)c1)C1=C(CCCC1=O)N2c1ccccc1`, the Potency was inconclusive [inhibitor, full curve, poor fit].
For `COc1cc(C2NC(=O)NC3=C2C(=O)OC3)cc(OC)c1OC` (centres undefined), the Potency was inconclusive [inhibitor, partial curve].
For `O=C(O)CCC(=O)Nc1cccc(-c2nc3ccccc3o2)c1`, the Potency was “inactive”.
In the case of `CC(C)C(=O)Nc1ccc(NC(=O)c2cccc(F)c2)cn1`, the Potency is reported as inconclusive [inhibitor, full curve].
For `COc1ccc(C(=O)Nc2cccc(-c3cc4ccccc4oc3=O)c2)cc1[N+](=O)[O-]`, the Potency was inconclusive [inhibitor, full curve, poor fit].
With `CC(Nc1ccc2ccccc2c1)C(=O)N/N=C/c1ccncc1` (centres undefined) the Potency was inconclusive [inhibitor, full curve, poor fit].
In the case of `N#CC1=C(N2CCCCC2)c2cc3c(n2C1=O)CCCC3`, the Potency is reported as inconclusive [inhibitor, full curve, poor fit].
With `OC(CN1CCN(c2ccccn2)CC1)Cn1c2ccccc2c2ccccc21` (centres undefined) the Potency was “inactive”.
`COc1ccc2[nH]c(=O)c(CN(CC3CCCO3)S(=O)(=O)c3ccccc3F)cc2c1` (centres undefined) was tested, and the Potency was inconclusive [inhibitor, full curve].
In the case of `O=[N+]([O-])c1ccc2nc(-c3ccc(Cl)cc3)n(OCc3ccccc3)c2c1`, the Potency is reported as inconclusive [inhibitor, full curve, poor fit].
`CCOC(=O)Cc1nn(Cc2nc(-c3ccc(C#N)cc3)cs2)c(=O)c2ccccc12` was tested, and the Potency was “inactive”.
With `CCCC(C(=O)NC1CCCCC1)N(Cc1ccco1)C(=O)CNS(=O)(=O)c1ccccc1` (centres undefined) the Potency was inconclusive [inhibitor, single point].
In the case of `CCOCCCNS(=O)(=O)c1ccc(OC)c(Cl)c1Cl`, the Potency is reported as inconclusive [inhibitor, partial curve, poor fit].
For `CCCC(=O)c1c(NCCO)cc(C)oc1=O`, the Potency was inconclusive [inhibitor, full curve, poor fit].
With `COc1ccc(S(=O)(=O)N2CCC(C(=O)Nc3ccccc3N3CCCC3)CC2)cc1OC` the Potency was inconclusive [inhibitor, full curve, poor fit].
`Cc1ccc(NNC(=O)c2ccno2)cc1C` was tested, and the Potency was “inactive”.
`Cc1cccc(N2C(=O)/C(=C/N3CCN(C(=O)c4ccco4)CC3)C(=O)NC2=S)c1` was tested, and the Potency was inconclusive [inhibitor, full curve, poor fit].
In the case of `CCC(C)Sc1nc2c(cnn2-c2ccccc2)c(=O)[nH]1` (centres undefined), the Potency is reported as “inactive”.
`COc1nc(Nc2ccccc2F)nc(OC)n1` was tested, and the Potency was inconclusive [inhibitor, full curve, poor fit].
In the case of `Cc1ccc(NC(=O)Cn2c(=O)c(C)nc3ccccc32)cc1`, the Potency is reported as “inactive”.
With `CCN1CCN(C(=O)c2cnn(-c3ccc(F)cc3)c2-n2cccc2)CC1` the Potency was “inactive”.
`Nc1ccc(CCC(=O)N2CCCC2)cc1` was tested, and the Potency was inconclusive [inhibitor, full curve, poor fit].
For `CCOC(=O)CN1CCC(c2ccccc2)CC1`, the Potency was inconclusive [inhibitor, partial curve].
With `CCCCn1c(O)c(C=NCCCN(CC)CC)c(=O)[nH]c1=O` the Potency was inconclusive [inhibitor, partial curve, poor fit].
With `CC(=O)N1N=C(c2ccc(C)cc2)CC1c1ccco1` (centres undefined) the Potency was inconclusive [inhibitor, full curve, poor fit].
With `COc1ccccc1C(=O)COC(=O)c1ccccc1OCC(=O)Nc1ccc(SC(F)F)cc1` the Potency was inconclusive [inhibitor, full curve, poor fit].
For `COc1cc2[nH]c(C(=O)N3CCN(C)CC3)cc2c(OC)c1OC`, the Potency was “inactive”.
`COC(=O)C1=C(O)/C(=C\c2cc(C)n(-c3ccc(F)cc3)c2C)N=C1C` was tested, and the Potency was “inactive”.
For `COc1ccc2c(/C=N/Nc3ccc(C(=O)O)cc3)c[nH]c2c1`, the Potency was “inactive”.
`c1ccc2c(NC3CCCC3)nnc(NC3CCCC3)c2c1` was tested, and the Potency was inconclusive [inhibitor, partial curve, poor fit].
In the case of `COCCn1c(SCC(=O)NCCc2ccccc2)nc2c([nH]c3ccccc32)c1=O`, the Potency is reported as inconclusive [inhibitor, full curve].
For `CC(=O)N1CCN(CC(c2ccccc2)c2ccccc2)CC1`, the Potency was inconclusive [inhibitor, full curve, poor fit].
In the case of `O=C(C1CCCO1)N1CCC(c2nc3ccccc3[nH]2)CC1` (centres undefined), the Potency is reported as inconclusive [inhibitor, full curve, poor fit].
For `CCc1ccccc1N1C(=O)C2CC(C)=C(C)CC2C1=O` (centres undefined), the Potency was inconclusive [inhibitor, full curve, poor fit].
With `CC1(C)Cc2ccccc2-c2nnc(SCc3ccccc3)n21` the Potency was inconclusive [inhibitor, single point].
For `COc1cc(C(=O)Nc2cccc(-c3nc4ncccc4o3)c2C)cc(OC)c1OC`, the Potency was “inactive”.
In the case of `Cn1nc(-c2ccccc2)c(C(O)c2ccccc2C(F)(F)F)c1Cl` (centres undefined), the Potency is reported as “inactive”.
`c1nc(N2CCNCC2)c2sc3nc(N4CCOCC4)c4c(c3c2n1)CCC4` was tested, and the Potency was inconclusive [inhibitor, full curve].
In the case of `CCCCOc1ccc(/C=N/NC(=O)c2csc(C)c2C)cc1`, the Potency is reported as inconclusive [inhibitor, full curve, poor fit].
For `CCOCCCNC(=O)NC(C)c1c(-n2cccc2)sc2c1CCN(CC)C2` (centres undefined), the Potency was “inactive”.
With `Cn1ccc(C(=O)Nc2ccc(Br)cc2Br)n1` the Potency was “inactive”.
In the case of `Cc1cccc(NC(=O)NCCN2C(=O)C3C4C=CC(C4)C3C2=O)c1` (centres undefined), the Potency is reported as inconclusive [inhibitor, full curve, poor fit].
`Cc1cc(Cl)ccc1NC(=O)CCN1C(=O)C2CCCCC2C1=O` (centres undefined) was tested, and the Potency was “inactive”.
`Cc1ccc(CNC(=O)CCCCn2c(=O)c3ccccc3n(Cc3c(C)cc(C)cc3C)c2=O)cc1` was tested, and the Potency was “inactive”.
With `COC(=O)CNC(=O)C1CCCN1C(=O)CNC(=O)OC(C)(C)C` (stereo not drawn) (Boc-Gly-[ξP]-Gly-OMe) the Potency was inconclusive [inhibitor, full curve, poor fit].
`CCOC(=O)c1cc(-c2ccccc2)sc1NC(=O)CSc1nnc(N)s1` was tested, and the Potency was inconclusive [inhibitor, full curve, poor fit].
For `Cc1ccc(N(CC(O)COCc2ccco2)S(=O)(=O)c2ccc(C)cc2)cc1` (centres undefined), the Potency was inconclusive [inhibitor, single point].
With `O=C(CCC(=O)N1CCCc2ccccc21)N1CCN(S(=O)(=O)c2ccccc2)CC1` the Potency was inconclusive [inhibitor, partial curve, poor fit].
With `Fc1cccc(Nc2nc3ccccc3n3nnnc23)c1` the Potency was inconclusive [inhibitor, full curve, poor fit].
`COc1cc(-c2nc3nc[nH]n3c2Nc2ccc(C(C)C)cc2)ccc1O` was tested, and the Potency was “inactive”.
For `CN(Cc1cccc(C(F)(F)F)c1)C(=O)C1CCC(=O)N(CC2CCCCC2)C1` (centres undefined), the Potency was inconclusive [inhibitor, full curve, poor fit].
For `Cc1cccc(-n2ncc3c(Nc4ccc(Oc5ccc(Cl)cc5)cc4)ncnc32)c1`, the Potency was “inactive”.
`Cc1cc(C)c2c(N)c(C(=O)NNC(=O)c3ccccc3)sc2n1` was tested, and the Potency was inconclusive [inhibitor, single point].
For `OCCN1CCN(CCCc2c3c(cc4c2CCC4)CCC3)CC1`, the Potency was inconclusive [inhibitor, full curve, poor fit].
In the case of `C=C(C)Cn1c(=O)c2c(nc3n2CCCN3Cc2ccccc2)n(C)c1=O`, the Potency is reported as inconclusive [inhibitor, partial curve].
`O=C(NCCc1csc(-c2ccccc2)n1)c1ccc(Br)o1` was tested, and the Potency was inconclusive [inhibitor, full curve, poor fit].
In the case of `CC(C)Sc1nc(NCc2ccco2)c2c3c(sc2n1)COC(C)(C)C3`, the Potency is reported as inconclusive [inhibitor, partial curve, poor fit].
For `CCc1nn(-c2ccccc2)c2nc(-c3cccc(OC)c3)c3cc(OC)c(OC)cc3c12`, the Potency was “inactive”.
For `CCn1nnc(NC(=O)CSc2ccc(Cl)cc2)n1`, the Potency was inconclusive [inhibitor, full curve, poor fit].
In the case of `Cc1oc2ncn(CC(C)C)c(=O)c2c1C(=O)N1CCN(c2cccc(C(F)(F)F)c2)CC1`, the Potency is reported as “inactive”.
For `COc1ccc(NC(=S)NCCc2c[nH]c3ccccc23)cc1`, the Potency was inconclusive [inhibitor, single point].
For `COc1ccc(/C=C/C(=O)Nc2cc(C(F)(F)F)ccc2Cl)cc1OC`, the Potency was inconclusive [inhibitor, partial curve].
`CCOC(=O)c1ccc(NC(=O)CCn2nnc3ccccc32)cc1` was tested, and the Potency was “inactive”.
With `O=C(Cn1nnc(-c2ccc(CN3CCOCC3)cc2)n1)N1CCCc2ccccc21` the Potency was inconclusive [inhibitor, full curve, poor fit].
In the case of `COc1cc(NC(=O)CSc2nnc(-c3ccncc3)n2C2CCCCC2)ccc1NC(=O)c1ccco1`, the Potency is reported as inconclusive [inhibitor, full curve, poor fit].
